Assay results reported in patent US20190225650A1, “PEPTIDOMIMETIC MACROCYCLES AND USE THEREOF IN REGULATING HIF1ALPHA” (AILERON THERAPEUTICS, INC., priority 2013, published 2019).
At least one structure is not confirmed: it was looked up by name or label, or the drawing left a doubt. Bridge positions count the residues as written; N and C are the ends. Square brackets hold non-standard residues; d marks the D form. Peptide text beside a SMILES is read from it. R8 = C=CCCCCCC[C@@](C)(N)C(=O)O; R5 = C=CCCC[C@@](C)(N)C(=O)O; S5 = C=CCCC[C@](C)(N)C(=O)O; Nle = CCCC[C@H](N)C(=O)O; Abu = CC[C@H](N)C(=O)O

These compounds were tested against T1, flag-tagged HIF1α (AA 786-826) / His6-tagged p300 (AA 323-423) complex (Homo sapiens, UniProt Q09472) (assay: HIF1α p300 displacement assay (TR FRET, +CHAPS)). Conditions: read-out: IC50 (nM) (HIF1α_p300 Displacement + CHAPS).
T1 construct: His6-tagged p300 (AA 323-423); made in house; host or cells: E. coli (pETDuet vector)
T1 sequence (Q09472 323-423, one chain of several): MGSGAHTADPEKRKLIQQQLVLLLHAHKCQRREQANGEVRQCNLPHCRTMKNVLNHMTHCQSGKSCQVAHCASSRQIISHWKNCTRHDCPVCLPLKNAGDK
Format: binding
Procedure: The ability of peptides to displace HIF1α c-terminal trans-activation domain from p300-CH was measured by a TR FRET assay. A complex of flag-tagged HIF1α (AA 786-826) and His6-tagged p300 (AA 323-423) was co-expressed using pETDuet vector (EMDMillipore, Bellrica Mass.) and purified from E. coli in the presence of 0.1 mM ZnSO4. The complex was diluted to 300 nM final in complete assay media and competitor peptides were added. The complete assay media contained 150 mM NaCl (Sigma +S5150 or equivalent), 20 mM HEPES pH 7.4 (Boston Bioproducts, Ashland, Mass.; #BB-2076), 7.5 mM CHAPS (Thermo #28300 or equivalent), and 1 mM DTT. Protein and peptide were incubated at room temperature for 1 hour before the addition of anti-Flag-K and anti-6×HIS-D2 (CisBio, Bedford Mass.) HTRF reconstitution buffer (50 mM Phosphate pH 7, 0.8 Potassium Flouride, BSA 0.2%)^1 to a final concentration of 0.5 μM and 4 nM respectively. The reaction continued for an additional two hours at room temperature. The reaction was read on a TECAN F500 plate reader with settings recommended by CisBio. The ratio of donor to acceptor fluorescence was calculated. The resulting data was analyzed with Graphpad Prism 5.0. IC50 values were calculated for both proteins using the One Site Fit-LogIC50 equation and presented in the column “IC50 (nM) (HIF1α_p300 Displacement+CHAPS)” of Table 6. ^1 Cisbio USA, Bedford, Mass.; 61HISDLB (lot 007A), 61FG2KLB (024A), HTRF Buffer (62RB3RDF)
In the case of `CCCC[C@H](NC(=O)[C@H](CCC(=O)O)NC(=O)[C@@H](NC(=O)[C@@H](NC(=O)[C@H](CC(C)C)NC(=O)[C@]1(C)CCCC=CCCC[C@](C)(NC(=O)[C@H](CCC(=O)O)NC(=O)[C@H](CC(=O)O)NC(=O)[C@@H](NC(=O)[C@H](Cc2ccccc2)NC(C)=O)[C@@H](C)CC)C(=O)N[C@@H](CO)C(=O)N[C@@H](CC(C)C)C(=O)N[C@@H](CCCC)C(=O)N1)C(C)C)[C@@H](C)CC)C(=O)N[C@@H](C)C(=O)N[C@@H](CC(C)C)C(N)=O` [SP-140] (Ac-FIDE[S5]SL[Nle][S5]LVIE[Nle]AL-NH2; staple 5-9), the IC50 is reported as 400 to 700 nM.
For `CC[C@H](C)[C@H](NC(=O)[C@H](Cc1ccccc1)NC(C)=O)C(=O)N[C@@H](CC(=O)O)C(=O)N[C@@H](CCC(=O)O)C(=O)N[C@@H](CCC(=O)O)C(=O)N[C@H](C(=O)N[C@]1(C)CCCCCCC=CCCC[C@@](C)(C(=O)NCC(=O)N[C@@H](CC(C)C)C(=O)N[C@@H](CC(=O)O)C(=O)N[C@@H](CCCNC(=N)N)C(=O)N[C@H](C(=O)N[C@@H](CCCCN)C(=O)N[C@@H](CCC(=O)O)C(=O)N[C@@H](CC(C)C)C(=O)N2CCC[C@H]2C(=O)N[C@@H](CCC(=O)O)C(=O)N[C@@H](CC(C)C)C(=O)N[C@@H](Cc2c[nH]c3ccccc23)C(=O)N[C@@H](CC(C)C)C(N)=O)[C@@H](C)CC)NC(=O)[C@H](CCC(=O)O)NC(=O)[C@H]([C@@H](C)CC)NC(=O)[C@H](C(C)C)NC(=O)[C@H](CC(C)C)NC(=O)[C@H](CO)NC(=O)[C@H](CCSC)NC1=O)C(C)C` [SP-84] (Ac-FIDEEV[R8]MSLVIE[S5]GLDRIKELPELWL-NH2; staple 7-14), the IC50 was no more than 200 nM.
With `CC[C@H](C)[C@H](NC(=O)[C@H](Cc1ccccc1)NC(C)=O)C(=O)N[C@@H](CC(=O)O)C(=O)N[C@@H](CCC(=O)O)C(=O)N[C@@H](CCC(=O)O)C(=O)N[C@H](C(=O)N[C@@H](CC(C)C)C(=O)N[C@@H](CCSC)C(=O)N[C@@]1(C)CCCC=CCCC[C@@](C)(C(=O)N[C@@H](CCSC)C(=O)N[C@@H](C)C(=O)N[C@@H](CC(C)C)C(=O)N[C@@H](CC(C)C)C(N)=O)NC(=O)[C@H]([C@@H](C)CC)NC(=O)[C@H](C(C)C)NC(=O)[C@H](CC(C)C)NC1=O)C(C)C` [SP-229] (Ac-FIDEEVLM[S5]LVI[S5]MALL-NH2; staple 9-13) the IC50 was 400 to 700 nM.
Work on `CCCC[C@H](NC(=O)[C@H](CC(C)C)NC(=O)[C@@H](NC(=O)[C@H](CCC(=O)O)NC(=O)[C@H](CCC(=O)O)NC(=O)[C@H](CC(=O)O)NC(=O)[C@@H](NC(=O)[C@H](Cc1ccccc1)NC(C)=O)[C@@H](C)CC)C(C)C)C(=O)N[C@@]1(C)CCCC=CCCC[C@@](C)(C(=O)N[C@@H](CCCC)C(=O)N[C@@H](C)C(=O)N[C@@H](CC(C)C)C(=O)N[C@@H](CC(=O)O)C(=O)N[C@@H](CCCNC(=N)N)C(=O)N[C@H](C(=O)N[C@@H](CCCCN)C(=O)N[C@@H](CCC(=O)O)C(=O)N[C@@H](CC(C)C)C(=O)N2CCC[C@H]2C(=O)N[C@@H](CCC(=O)O)C(=O)N[C@@H](CC(C)C)C(=O)N[C@@H](Cc2c[nH]c3ccccc23)C(=O)N[C@@H](CC(C)C)C(N)=O)[C@@H](C)CC)NC(=O)[C@H]([C@@H](C)CC)NC(=O)[C@H](C(C)C)NC(=O)[C@H](CC(C)C)NC1=O` [SP-4] (Ac-FIDEEVL[Nle][S5]LVI[S5][Nle]ALDRIKELPELWL-NH2; staple 9-13) yielded an IC50 of 200 to 400 nM.
In the case of `CCCC[C@H](NC(=O)[C@H](CC(C)C)NC(=O)[C@@H](NC(=O)[C@H](CCC(=O)O)NC(=O)[C@H](CCC(=O)O)NC(=O)[C@H](CC(=O)O)NC(=O)[C@@H](NC(=O)[C@H](Cc1ccccc1)NC(C)=O)[C@@H](C)CC)C(C)C)C(=O)N[C@@]1(C)CCCC=CCCC[C@@](C)(C(=O)N[C@@H](CO)C(=O)N[C@@H](C)C(=O)N[C@@H](CC(C)C)C(=O)N[C@@H](CC(=O)O)C(=O)N[C@@H](CCCNC(=N)N)C(=O)N[C@H](C(N)=O)[C@@H](C)CC)NC(=O)[C@H]([C@@H](C)CC)NC(=O)[C@H](C(C)C)NC(=O)[C@H](CC(C)C)NC1=O` [SP-54] (Ac-FIDEEVL[Nle][S5]LVI[S5]SALDRI-NH2; staple 9-13), the IC50 is reported as 400 to 700 nM.
`CCCC[C@H](NC(=O)[C@H](CC(C)C)NC(=O)[C@@H](NC(=O)[C@H](CCC(=O)O)NC(=O)[C@H](CCC(=O)O)NC(=O)[C@H](CC(=O)O)NC(=O)[C@@H](NC(=O)[C@H](Cc1ccccc1)NC(C)=O)[C@@H](C)CC)C(C)C)C(=O)N[C@]1(C)CCCC=CCCC[C@](C)(C(=O)N[C@@H](CCCC)C(=O)N[C@@H](C)C(=O)N[C@@H](CC(C)C)C(N)=O)NC(=O)[C@H]([C@@H](C)CC)NC(=O)[C@H](C(C)C)NC(=O)[C@H](CC(C)C)NC1=O` [SP-241] (Ac-FIDEEVL[Nle][R5]LVI[R5][Nle]AL-NH2; staple 9-13) showed an IC50 of 400 to 700 nM.
`CCCC[C@H](NC(=O)[C@H](CC(C)C)NC(=O)[C@@H](NC(=O)[C@H](C)NC(=O)[C@H](CCC(N)=O)NC(=O)[C@H](CC(=O)O)NC(=O)[C@@H](NC(=O)[C@H](Cc1ccccc1)NC(C)=O)[C@@H](C)CC)C(C)C)C(=O)N[C@@]1(C)CCCC=CCCC[C@@](C)(C(=O)N[C@@H](CCCC)C(=O)N[C@@H](C)C(=O)N[C@@H](CC(C)C)C(=O)N[C@@H](CC(N)=O)C(=O)N[C@@H](CCCNC(=N)N)C(=O)N[C@H](C(N)=O)[C@@H](C)CC)NC(=O)[C@H]([C@@H](C)CC)NC(=O)[C@H](C(C)C)NC(=O)[C@H](CC(C)C)NC1=O` [SP-273] (Ac-FIDQAVL[Nle][S5]LVI[S5][Nle]ALNRI-NH2; staple 9-13) showed an IC50 greater than 700 nM.
Work on `CCCC[C@H](NC(=O)[C@H](CC(C)C)NC(=O)[C@@H](NC(=O)[C@H](CCC(=O)O)NC(=O)[C@H](CCC(=O)O)NC(=O)[C@H](CC(=O)O)NC(=O)[C@@H](NC(=O)[C@H](Cc1ccccc1)NC(C)=O)[C@@H](C)CC)C(C)C)C(=O)N[C@@]1(C)CCCC=CCCC[C@@](C)(C(=O)N[C@@H](CCCC)C(=O)N[C@@H](C)C(=O)N[C@@H](CC(C)C)C(=O)N[C@@H](CC(=O)O)C(=O)N[C@@H](CCCNC(=N)N)C(=O)N[C@H](C(N)=O)[C@@H](C)CC)NC(=O)[C@H]([C@@H](C)CC)NC(=O)[C@H](C)NC(=O)[C@H](CC(C)C)NC1=O` [SP-18] (Ac-FIDEEVL[Nle][S5]LAI[S5][Nle]ALDRI-NH2; staple 9-13) yielded an IC50 of 400 to 700 nM.
Work on `CC[C@@H]1NC(=O)[C@H](CC(=O)O)NC(=O)[C@H](Cc2ccc(O)cc2)NC(=O)[C@@](C)(NC(=O)[C@@H](NC(=O)[C@H](CC(C)C)NC(=O)[C@H](CCC(N)=O)NC(=O)[C@@H]2CCCN2C(=O)[C@H](CC(C)C)NC(=O)[C@H](CCC(=O)O)NC(=O)[C@H](CCCCN)NC(=O)[C@@H](NC(=O)[C@H](CCCNC(=N)N)NC(=O)[C@H](CC(=O)O)NC(=O)[C@H](CC(C)C)NC(=O)CNC(=O)[C@H](CCSC)NC(=O)[C@H](CCC(=O)O)NC(=O)[C@@H](NC(=O)[C@@H](NC(=O)[C@H](CC(C)C)NC(=O)[C@]2(C)CCCC=CCCC[C@](C)(NC(=O)[C@H](CCC(=O)O)NC(=O)[C@H](CC(=O)O)NC(=O)[C@@H](NC(=O)[C@H](Cc3ccccc3)NC(C)=O)[C@@H](C)CC)C(=O)N[C@@H](C(C)C)C(=O)N[C@@H](CC(C)C)C(=O)N[C@@H](CCSC)C(=O)N2)C(C)C)[C@@H](C)CC)[C@@H](C)CC)[C@@H](C)O)CCCC=CCCC[C@@](C)(C(=O)N[C@H](C(=O)N[C@@H](CC(N)=O)C(=O)N[C@@H](C)C(N)=O)C(C)C)NC1=O` [SP-322] (Ac-FIDE[S5]VLM[S5]LVIEMGLDRIKELPQLT[S5]YD[Abu][S5]VNA-NH2; staple 5-9, 27-31) yielded an IC50 of 200 to 400 nM.
`CC[C@H](C)[C@H](NC(=O)[C@H](CCCNC(=N)N)NC(=O)[C@H](CC(=O)O)NC(=O)[C@H](CC(C)C)NC(=O)[C@H](C)NC(=O)[C@H](CCSC)NC(=O)[C@]1(C)CCCC=CCCC[C@](C)(NC(=O)[C@H](CCSC)NC(=O)[C@H](Cc2ccccc2)NC(=O)[C@@H](NC(=O)[C@H](CCC(=O)O)NC(=O)[C@H](CCC(N)=O)NC(=O)[C@H](CC(=O)O)NC(=O)[C@@H](NC(=O)[C@H](Cc2ccccc2)NC(C)=O)[C@@H](C)CC)C(C)C)C(=O)N[C@@H](CC(C)C)C(=O)N[C@@H](C(C)C)C(=O)N[C@@H]([C@@H](C)CC)C(=O)N1)C(N)=O` [SP-267] (Ac-FIDQEVFM[S5]LVI[S5]MALDRI-NH2; staple 9-13) gave an IC50 of 400 to 700 nM.
Compound `CC[C@H](C)[C@H](NC(=O)[C@H](Cc1ccccc1)NC(C)=O)C(=O)N[C@@H](CC(=O)O)C(=O)N[C@@H](CCC(=O)O)C(=O)N[C@@H](CCC(=O)O)C(=O)N[C@H](C(=O)N[C@@H](CC(C)C)C(=O)N[C@@H](CCSC)C(=O)N[C@@]1(C)CCCC=CCCC[C@@](C)(C(=O)N[C@@H](CCSC)C(=O)NCC(=O)N[C@@H](CC(C)C)C(=O)N[C@@H](CC(=O)O)C(=O)N[C@@H](CCCNC(=N)N)C(=O)N[C@H](C(=O)N[C@@H](CCCCN)C(=O)N[C@@H](CCC(=O)O)C(=O)N[C@@H](CC(C)C)C(=O)N2CCC[C@H]2C(=O)N[C@@H](CCC(=O)O)C(=O)N[C@@H](CC(C)C)C(=O)N[C@@H](Cc2c[nH]c3ccccc23)C(=O)N[C@@H](CC(C)C)C(N)=O)[C@@H](C)CC)NC(=O)[C@H]([C@@H](C)CC)NC(=O)[C@H](C(C)C)NC(=O)[C@H](CC(C)C)NC1=O)C(C)C` [SP-1] (Ac-FIDEEVLM[S5]LVI[S5]MGLDRIKELPELWL-NH2; staple 9-13) has an IC50 of 200 to 400 nM.
